# This is one part of the list.
# B1: PVL (Psathyrella velutina), Q309D1_9AGAR (protein)
# chain: MSVVVISQALPVPTRIPGVADLVGFGNGGVYIIRNSLLIQVVKVINNFGYDAGGWRVEKHVRLLADTTGDNQPDVVGFGENGVWISTNNGNNTFVDPPKMVLANFAYAAGGWRVEKHIRFMADLRKTGRADIVGFGDGGIYISRNNGGGQFAPAQLALNNFGYAQGWRLDRHLRFLADVTGDGLLDVVGFGENQVYIARNSGNGTFQPAQAVVNNFCIGAGGWTISAHPRVVADLTGDRKADILGFGVAGVYTSLNNGNGTFGAVNLVLKDFGVNSGWRVEKHVRCVSSLTNKKVGDIIGFGDAGVYVALNNGNGTFGPVKRVIDNFGYNQGWRVDKHPRFVVDLTGDGCADIVGFGENSVWACMNKGDGTFGPIMKLIDDMTVSKGWTLQKTVRYAANLYL
# Tests used:
# Assay in all cases: glycan array binding signal (z-score within array); higher = stronger binding
# Details in all cases: glycan notation: IUPAC condensed, linker removed
# Fuc(a1-2)Gal = target: Fuc(a1-2)Gal
# Outline: (§1)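 Columns mapping to the same glycan were averaged after glycan names were converted to IUPAC-condensed notation. The data come from 3228 arrays in the Consortium for Functional Glycomics database, limited to those with an available protein sequence. Binding is reported as a within-array Z-score averaged across arrays of one protein sequence and across linkers.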
# Fuc(a1-2)Gal(b1-3)GalNAc = target: Fuc(a1-2)Gal(b1-3)GalNAc
# Outline: as §1
# [1] = target: Fuc(a1-2)Gal(b1-3)GalNAc(a1-3)[Fuc(a1-2)]Gal(b1-4)Glc
# Outline: as §1
# [2] = target: Fuc(a1-2)Gal(b1-3)GalNAc(a1-3)[Fuc(a1-2)]Gal(b1-4)GlcNAc
# Outline: as §1
# [3] = target: Fuc(a1-2)Gal(b1-3)GalNAc(b1-3)Gal
# Outline: as §1
# [4] = target: Fuc(a1-2)Gal(b1-3)GalNAc(b1-3)Gal(a1-4)Gal(b1-4)Glc
# Outline: as §1
# [5] = target: Fuc(a1-2)Gal(b1-3)GalNAc(b1-4)[Neu5Ac(a2-3)]Gal(b1-4)Glc
# Outline: as §1
# Fuc(a1-2)Gal(b1-3)GlcNAc = target: Fuc(a1-2)Gal(b1-3)GlcNAc
# Outline: as §1
# [6] = target: Fuc(a1-2)Gal(b1-3)GlcNAc(b1-2)Man(a1-3)[Fuc(a1-2)Gal(b1-3)GlcNAc(b1-2)Man(a1-6)]Man(b1-4)GlcNAc(b1-4)GlcNAc
# Outline: as §1
# [7] = target: Fuc(a1-2)Gal(b1-3)GlcNAc(b1-2)Man(a1-3)[Fuc(a1-2)Gal(b1-3)GlcNAc(b1-2)Man(a1-6)]Man(b1-4)GlcNAc(b1-4)[Fuc(a1-6)]GlcNAc
# Outline: as §1
# [8] = target: Fuc(a1-2)Gal(b1-3)GlcNAc(b1-3)Gal(b1-4)Glc
# Outline: as §1
# [9] = target: Fuc(a1-2)Gal(b1-3)GlcNAc(b1-3)GalNAc
# Outline: as §1
# [10] = target: Fuc(a1-2)Gal(b1-3)GlcNAc(b1-3)[Fuc(a1-2)Gal(b1-3)GlcNAc(b1-6)]GalNAc
# Outline: as §1
# [11] = target: Fuc(a1-2)Gal(b1-3)GlcNAc(b1-3)[Gal(b1-4)GlcNAc(b1-6)]Gal(b1-4)Glc
# Outline: as §1
# [12] = target: Fuc(a1-2)Gal(b1-3)GlcNAc(b1-3)[Neu5Ac(a2-6)Gal(b1-4)GlcNAc(b1-6)]Gal(b1-4)Glc
# Outline: as §1
# [13] = target: Fuc(a1-2)Gal(b1-3)GlcNAc6S
# Outline: as §1
# [14] = target: Fuc(a1-2)Gal(b1-3)[Fuc(a1-4)]GlcNAc
# Outline: as §1
# [15] = target: Fuc(a1-2)Gal(b1-3)[Fuc(a1-4)]GlcNAc(b1-2)Man(a1-3)[Fuc(a1-2)Gal(b1-3)[Fuc(a1-4)]GlcNAc(b1-2)Man(a1-3)]Man(b1-4)GlcNAc(b1-4)GlcNAc
# Outline: as §1
# [16] = target: Fuc(a1-2)Gal(b1-3)[Fuc(a1-4)]GlcNAc(b1-2)Man(a1-3)[Fuc(a1-2)Gal(b1-3)[Fuc(a1-4)]GlcNAc(b1-2)Man(a1-6)]Man(b1-4)GlcNAc(b1-4)[Fuc(a1-6)]GlcNAc(b1-4)[Fuc(a1-6)]GlcNAc
# Outline: as §1
# [17] = target: Fuc(a1-2)Gal(b1-3)[Fuc(a1-4)]GlcNAc(b1-3)[Fuc(a1-3)[Gal(b1-4)]GlcNAc(b1-6)]Gal(b1-4)Glc
# Outline: as §1
# [18] = target: Fuc(a1-2)Gal(b1-3)[Fuc(a1-4)]GlcNAc(b1-3)[Gal(b1-4)GlcNAc(b1-6)]Gal(b1-4)Glc
# Outline: as §1
# [19] = target: Fuc(a1-2)Gal(b1-4)Fuc(a1-3)]GlcNAc(b1-2)Man(a1-3)[Fuc(a1-2)Gal(b1-4)[Fuc(a1-3)]GlcNAc(b1-2)Man(a1-6)]Man(b1-4)GlcNAc(b1-4)GlcNAc
# Outline: as §1
# Fuc(a1-2)Gal(b1-4)Glc = target: Fuc(a1-2)Gal(b1-4)Glc
# Outline: as §1
# Fuc(a1-2)Gal(b1-4)Glc6S = target: Fuc(a1-2)Gal(b1-4)Glc6S
# Outline: as §1
# Fuc(a1-2)Gal(b1-4)GlcNAc = target: Fuc(a1-2)Gal(b1-4)GlcNAc
# Outline: as §1
# [20] = target: Fuc(a1-2)Gal(b1-4)GlcNAc(b1-2)Man
# Outline: as §1
# [21] = target: Fuc(a1-2)Gal(b1-4)GlcNAc(b1-2)Man(a1-3)[Fuc(a1-2)Gal(b1-4)GlcNAc(b1-2)Man(a1-6)]Man(b1-4)GlcNAc(b1-4)GlcNAc
# Outline: as §1
# [22] = target: Fuc(a1-2)Gal(b1-4)GlcNAc(b1-2)Man(a1-3)[Fuc(a1-2)Gal(b1-4)GlcNAc(b1-2)Man(a1-6)]Man(b1-4)GlcNAc(b1-4)[Fuc(a1-6)]GlcNAc
# Outline: as §1
# [23] = target: Fuc(a1-2)Gal(b1-4)GlcNAc(b1-2)[Fuc(a1-2)Gal(b1-4)GlcNAc(b1-4)]Man(a1-3)[Fuc(a1-2)Gal(b1-4)GlcNAc(b1-2)Man(a1-6)]Man(b1-4)GlcNAc(b1-4)GlcNAc
# Outline: as §1
# [24] = target: Fuc(a1-2)Gal(b1-4)GlcNAc(b1-3)Gal(b1-4)GlcNAc
# Outline: as §1
# [25] = target: Fuc(a1-2)Gal(b1-4)GlcNAc(b1-3)Gal(b1-4)GlcNAc(b1-2)Man(a1-3)[Fuc(a1-2)Gal(b1-4)GlcNAc(b1-3)Gal(b1-4)GlcNAc(b1-2)Man(a1-6)]Man(b1-4)GlcNAc(b1-4)GlcNAc
# Outline: as §1
# [26] = target: Fuc(a1-2)Gal(b1-4)GlcNAc(b1-3)Gal(b1-4)GlcNAc(b1-3)Gal(b1-4)GlcNAc
# Outline: as §1
# [27] = target: Fuc(a1-2)Gal(b1-4)GlcNAc(b1-3)GalNAc
# Outline: as §1
# [28] = target: Fuc(a1-2)Gal(b1-4)GlcNAc(b1-3)[Fuc(a1-2)Gal(b1-4)GlcNAc(b1-6)]GalNAc
# Outline: as §1
# [29] = target: Fuc(a1-2)Gal(b1-4)GlcNAc(b1-3)[Fuc(a1-3)[Gal(b1-4)]GlcNAc(b1-6)]Gal(b1-4)Glc
# Outline: as §1
# [30] = target: Fuc(a1-2)Gal(b1-4)GlcNAc(b1-6)GalNAc
# Outline: as §1
# [31] = target: Fuc(a1-2)Gal(b1-4)GlcNAc6S
# Outline: as §1
binder,measurement,setting,value
B1,glycan array binding signal (z-score),Fuc(a1-2)Gal,-0.41
same,glycan array binding signal (z-score),Fuc(a1-2)Gal(b1-3)GalNAc,-0.378
same,glycan array binding signal (z-score),[1],-0.371
same,glycan array binding signal (z-score),[2],-0.371
same,glycan array binding signal (z-score),[3],-0.367
same,glycan array binding signal (z-score),[4],-0.356
same,glycan array binding signal (z-score),[5],-0.334
same,glycan array binding signal (z-score),Fuc(a1-2)Gal(b1-3)GlcNAc,-0.372
same,glycan array binding signal (z-score),[6],-0.345
same,glycan array binding signal (z-score),[7],-0.362
same,glycan array binding signal (z-score),[8],-0.371
same,glycan array binding signal (z-score),[9],-0.365
same,glycan array binding signal (z-score),[10],-0.366
same,glycan array binding signal (z-score),[11],-0.366
same,glycan array binding signal (z-score),[12],-0.367
same,glycan array binding signal (z-score),[13],-0.361
same,glycan array binding signal (z-score),[14],-0.371
same,glycan array binding signal (z-score),[15],-0.362
same,glycan array binding signal (z-score),[16],-0.319
same,glycan array binding signal (z-score),[17],-0.372
same,glycan array binding signal (z-score),[18],-0.374
same,glycan array binding signal (z-score),[19],-0.34
same,glycan array binding signal (z-score),Fuc(a1-2)Gal(b1-4)Glc,-0.438
same,glycan array binding signal (z-score),Fuc(a1-2)Gal(b1-4)Glc6S,-0.371
same,glycan array binding signal (z-score),Fuc(a1-2)Gal(b1-4)GlcNAc,-0.345
same,glycan array binding signal (z-score),[20],-0.366
same,glycan array binding signal (z-score),[21],-0.349
same,glycan array binding signal (z-score),[22],-0.365
same,glycan array binding signal (z-score),[23],-0.369
same,glycan array binding signal (z-score),[24],-0.283
same,glycan array binding signal (z-score),[25],0.321
same,glycan array binding signal (z-score),[26],-0.133
same,glycan array binding signal (z-score),[27],-0.347
same,glycan array binding signal (z-score),[28],-0.206
same,glycan array binding signal (z-score),[29],-0.364
same,glycan array binding signal (z-score),[30],-0.353
same,glycan array binding signal (z-score),[31],-0.35

# Reference: the supplement of paper PMC8728848
